# The supplement of paper PMC3334620
# In all, about 33,000 sequences were measured (“E-score (-0.5 to 0.5)”: median about -0.036, highest 2% from about 0.37 on). Some of the results follow.
# Molecular target: T1, Yer064c (UniProt P40041)
# T1 sequence: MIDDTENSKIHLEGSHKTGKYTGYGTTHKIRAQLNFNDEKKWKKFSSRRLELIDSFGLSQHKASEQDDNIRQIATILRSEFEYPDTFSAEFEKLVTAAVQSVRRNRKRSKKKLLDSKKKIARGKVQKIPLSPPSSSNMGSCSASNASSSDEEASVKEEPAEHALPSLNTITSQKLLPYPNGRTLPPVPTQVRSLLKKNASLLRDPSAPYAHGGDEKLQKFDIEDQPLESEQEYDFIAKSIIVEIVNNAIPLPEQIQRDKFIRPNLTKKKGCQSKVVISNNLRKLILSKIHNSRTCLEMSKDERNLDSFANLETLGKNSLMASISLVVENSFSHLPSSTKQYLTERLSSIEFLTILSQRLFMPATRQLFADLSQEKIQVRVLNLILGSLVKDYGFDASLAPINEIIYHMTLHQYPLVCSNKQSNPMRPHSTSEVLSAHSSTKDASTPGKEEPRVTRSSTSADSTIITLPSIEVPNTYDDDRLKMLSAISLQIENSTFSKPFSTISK
# Assay: PBM E-score (8-mer binding enrichment) (E-score (-0.5 to 0.5)); higher = stronger / more preferred TF binding; most listed sequences are background and not binding sites
# Details: protein concentration: 200 nM; construct: GST-full length
# How it was run: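 Yeast transcription factors carrying a GST tag, as full-length proteins or DNA-binding domains, were produced by PURExpress in vitro transcription/translation. About 100-200 nM protein was applied to universal all-10-mer Agilent arrays, double-stranded by primer extension on fresh or once-stripped slides. Bound protein was detected with fluorescent anti-GST, and scans were normalised with masliner. The Universal PBM Analysis Suite gave each ungapped eight-base word, pooled with its reverse complement, an E-score, a modified Wilcoxon-Mann-Whitney statistic.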
row,Sequence,PBM E-score
1,CAATTTGC,-0.213
2,GCCCTTCC,-0.402
3,AGTGAGTC,0.474
4,ACCTCAGT,0.173
5,AGCAGTGA,0.195
6,AGGGTCGA,0.0119
7,CCTCAAAG,-0.0817
8,ATGGTGGA,-0.108
9,AACTGTCT,-0.0512
10,CCGTTTAG,0.0178
11,ATATGCAG,0.196
12,GCTGGTCA,0.00078
13,AGTCTACA,0.272
14,CAACTGTG,-0.0385
15,AGGGGGCG,-0.31
16,AGTTCAAC,-0.0156
17,CATTAGGC,-0.181
18,ATACTCAA,0.239
19,CTCCAACA,-0.0127
20,CATACGAC,0.158
21,CATGCCGA,0.049
22,AGCGCTAA,0.0694
23,CTCTATAC,-0.0811
24,ACCGTTTA,-0.11
25,ATTAGTGG,0.11

row,Sequence,PBM E-score
1,AAGTTAAG,-0.145
2,TAATACGA,0.129
3,TCTAGAAA,0.156
4,CAATCCCC,-0.152
5,AGACCTAA,0.0162
6,GATATGAC,0.303
7,AAATACAG,-0.123
8,GGACTCCC,0.214
9,AATGTGGT,0.0567
10,AATAACCC,-0.084
11,TAACAAGA,0.149
12,CGGACTCA,0.411
13,AATTCGCT,0.0169
14,ATGCAGTG,0.0989
15,AGCGTGAG,0.14
16,AGGGCTTA,-0.259
17,ACCTTCCA,-0.123
18,ACGACCTA,0.0951
19,CGTCACTC,-0.0803
20,TCACGCAA,0.166
21,AGGGGCTA,-0.0794
22,CGTGCCAA,-0.09
23,CCCTGTTA,-0.0361
24,GGCGGCAC,-0.241
25,GAGCTGTA,-0.0312

row,Sequence,PBM E-score
1,AGTGGTGG,-0.0709
2,AAATAAAT,0.129
3,CATGTGCG,0.0118
4,TATAGATA,0.0868
5,CTGGGTCA,0.0445
6,ACCTATAC,-0.00407
7,ATTGTAAA,0.158
8,ATTCAACG,0.128
9,ATGGACTC,0.317
10,GGGGCAAC,-0.107
11,ATACTTAG,0.141
12,GGCCTGCA,-0.221
13,AGTTTTCG,-0.105
14,CCCTCATA,-0.0944
15,GCATGGGC,-0.209
16,ATTTCTGA,0.124
17,TACCACCA,-0.191
18,CTAAACGC,-0.0203
19,AAGCCCCC,-0.335
20,ACCGTAAC,0.0129
21,AGACTAAC,0.413
22,CGGGTCTC,-0.229
23,CGGACCAA,0.0184
24,GGGAGTTA,-0.0443
25,AACCAGAT,0.0191

row,Sequence,PBM E-score
1,GTTTCTGA,0.0765
2,CCCTAAAC,-0.12
3,CGCGAGCA,-0.16
4,ATAGAATG,-0.0817
5,TGCTCGAA,-0.124
6,ACCTATCC,-0.194
7,AATTAATG,0.0129
8,CATGACTA,0.491
9,AAATTTTC,-0.0466
10,CCTGTTCA,-0.183
11,CACTTAGC,-0.0151
12,ACTTGTGG,-0.0625
13,CCCACAAG,-0.153
14,CAAGGAGC,-0.0412
15,AAGGATCG,-0.0994
16,CGCGGAGA,0.0408
17,CTGCTACA,-0.0937
18,AAATGACA,-0.0093
19,ATTCCTGA,0.169
20,TCGACTAA,0.373
21,CCGTGTCA,-0.166
22,CCCTGGGC,-0.0764
23,CAAACTTC,0.0269
24,AGGTACTA,0.0119
25,TCGAGACA,0.186

row,Sequence,PBM E-score
1,CCCCCCCC,-0.322
2,CCGGGGCC,-0.188
3,AAAACAGC,-0.118
4,ACGGAGTC,0.431
5,AGTATCCG,0.0461
6,ATATCCGA,0.0402
7,CACCCCCC,-0.21
8,CCCCGGTA,-0.142
9,TGTCGCAA,-0.0497
10,AACCCTAG,-0.0457
11,CACGGACC,-0.102
12,GTCCGATA,-0.117
13,CCGTAGTC,0.394
14,GAGGACGC,-0.224
15,GAGCTGGC,-0.0442
16,GAATGAGC,-0.048
17,AAACGACC,-0.0678
18,AAACCTCA,0.0225
19,ATTGTGGC,-0.101
20,ACACAGGA,0.138
21,CGTCCAGC,-0.0372
22,GCATGAGC,-0.0333
23,GCTCCAAA,-0.0487
24,AACGAGCA,-0.13
25,ATCCTATG,-0.0227

row,Sequence,PBM E-score
1,ATTAATAA,0.163
2,ATCTCCGG,-0.0467
3,TGAGGGAA,-0.107
4,ATTTAAGG,0.154
5,AATCATGG,0.42
6,AGCAGGCC,-0.289
7,AATAGTCA,0.478
8,CTACGCTA,-0.141
9,AACGTCTC,0.0798
10,GGAGGATA,-0.225
11,ATCTCGAA,0.0351
12,ATTTCTGG,-0.033
13,CTGTGAGC,0.067
14,TACACGTA,-0.0462
15,CCCTACAC,0.0409
16,CGTCATCA,-0.004
17,AATGAGGT,-0.156
18,CAACGCAC,-0.168
19,ATAATAGC,-0.226
20,CTAGTCTC,0.278
21,ACGTGAAC,-0.144
22,CGTGGAAC,-0.0822
23,ATTGTGGA,-0.144
24,CCATTCAG,-0.0069
25,CAGATGCC,-0.0361

row,Sequence,PBM E-score
1,CGCGGGCC,-0.143
2,GACGGGGA,-0.164
3,ATGTAGTC,0.382
4,GGTAACCA,0.107
5,CGGAGTAC,-0.0665
6,CACTACAG,-0.029
7,TGATCCCA,-0.0706
8,GCTTTGAA,-0.0423
9,AAAAGCCA,0.0563
10,CCCGTGAG,0.00023
11,TAGTACAA,0.0653
12,CCCGCAGG,-0.172
13,CACTTCTA,-0.082
14,CTGATCAC,0.113
15,AAGAACGA,-0.0139
16,ACGTCAGG,-0.249
17,CGCACTTA,-0.0909
18,TCGGTACA,0.0864
19,AAAGGCTG,-0.239
20,CATCGGGG,0.0339
21,AGGTCCTA,-0.168
22,GCTTGGTA,-0.0666
